From PubChem BioAssay AID463173 (ICCB-Longwood Screening Facility, Harvard Medical School, 2010)
About 1,700 (3.3%) of roughly 52,000 compounds were called active. Cut-off read from the data, not from the text of the source: active = survival mostly below about 52% (no sharp cut-off); inactive = mostly above about 56%. The list shows a part of the results.

The compounds below were run on Wild type (assay: S. aureus survival, RN4220 and DeltatarO strains – OD600, teichoic acid synthesis inhibitors, primary screen (AID 463173)). Settings: S. aureus RN4220 wild type/DeltatarO growth, OD600, 18 h, stronger effect = lower value, screened at 18.75 µg/mL (by protocol).
For `COc1ccc(C2=C(C)C(N3CCC(C(=O)NCc4ccc(C)o4)CC3)=NS2(=O)=O)cc1`, the survival was inactive: 76%.
`COc1cc(C)nc(N(C)S(=O)(=O)c2ccccc2)n1` was tested, and the survival was inactive: 108%.
With `COc1ccc(NC(=O)Cn2cnc3ccc(S(=O)(=O)N4CCC(C)CC4)cc3c2=O)c(OC)c1` the survival was inactive: 95%.
In the case of `COc1cccc(CNC(=O)c2ccc(-c3nc(CS(=O)c4ccccc4)c(C)o3)cc2)c1` (centres undefined), the survival is reported as inactive: 69%.
For `COCCN(Cc1cc2c(C)cc(C)cc2nc1Cl)C(=O)c1ccco1`, the survival was inactive: 105%.
In the case of `Cc1ccc(NC(=O)Cc2ccc(NC(=O)N3CCCCc4ccccc43)cc2)cc1Cl`, the survival is reported as inactive: 66%.
In the case of `CCN(CC)c1ccc(NC(=O)Cn2ncc3c(C)n(Cc4ccccc4F)c(C)c3c2=O)c(C)c1`, the survival is reported as inactive: 97%.
In the case of `COc1ccc(/C=C/C(=O)Nc2ccc(C)cc2)cc1`, the survival is reported as inactive: 85%.
With `CC(=O)c1ccc(NC(=O)Nc2ccc3snnc3c2)cc1` the survival was inactive: 69%.
In the case of `CC1CC(C)N(C(=O)c2cc(-c3ccccc3)on2)C(C)C1` (centres undefined), the survival is reported as inactive: 129%.
For `CCOC(=O)c1ccc(N2C(=O)c3n[nH]c(-c4ccco4)c3C2c2ccc(OC)cc2OC)cc1` (centres undefined), the survival was inactive: 82%.
`COc1cccc(-c2nc(S(=O)(=O)c3ccc(C)cc3)c(N3CCCCCC3)o2)c1` was tested, and the survival was inactive: 44%.
In the case of `Cc1cccc(C)c1-n1ncc(C(=O)NCCCN2CCCCC2)c1C1CCN(C(=O)OC(C)(C)C)CC1`, the survival is reported as inactive: 85%.
For `CCCCOc1ccc(C(=O)NCC(c2ccc(Cl)cc2)N2CCOCC2)cc1` (centres undefined), the survival was inactive: 67%.
In the case of `COC(=O)c1nnn(-c2cccc(C)c2)c1N`, the survival is reported as inactive: 68%.
With `O=C(Nc1ccc(Oc2ccccc2)cc1)c1ccc(F)c(S(=O)(=O)N2CCN(c3cccc(Cl)c3)CC2)c1` the survival was inactive: 73%.
For `CCOc1ccc2[nH]c(=O)c(CNCCCO)cc2c1`, the survival was inactive: 114%.
`CCC(=O)Nc1nnc(CC(=O)N/N=C/c2ccc(O)cc2)s1` was tested, and the survival was inactive: 112%.
For `N#C/C(=C/c1ccc(-c2ccc(S(N)(=O)=O)cc2)o1)C(=O)Nc1cc(Cl)ccc1Cl`, the survival was inactive: 107%.
With `CCOC(=O)c1ccc(NC(=O)CN(Cc2ccc(C)cc2)S(=O)(=O)c2ccc(C)cc2)cc1` the survival was inactive: 70%.
For `COc1ccc(-n2c(SCc3nc(-c4ccc(C)cc4)no3)nnc2-c2ccccc2)cc1`, the survival was inactive: 77%.
`CC(C)Oc1ccc(CNC(=O)CN2C(=O)CCn3nc(-c4cn(C)c5ccccc45)cc32)cc1` was tested, and the survival was inactive: 133%.
For `Fc1ccccc1N1CCN(Cc2nnc(-c3ccc4c(c3)OCO4)o2)CC1`, the survival was inactive: 90%.
`CC1CN(C(=O)Nc2ccc(C(=O)NCc3ccccc3F)cc2)c2ccccc2S1` (centres undefined) was tested, and the survival was inactive: 107%.
